The labels stand for the following.
B1: CPEB3 Ribozyme (parent)
chain: UAACAGGGGGCCACAGCAGAAGCGUUCACGUCGCAGCCCCUGUCAGAUUCUGGUGAAUCUGCGAAUUCUGCUGUAUAUCUC

The source gives no read counts; variants with many changes may rest on few reads.

In the data set the parent is B1. Put plainly: self-cleavage, relative activity (ratio to wild type); higher = more cleavage; in vitro, sequencing. In short, it runs like this: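 For each CPEB3 ribozyme variant, relative activity is its cleaved/total read fraction divided by the unmutated ribozyme's. Barcoded error-prone PCR libraries were transcribed by T7 RNA polymerase (5 hours, 37°C) and held in DNase I for 15 min before an EDTA stop, with cleavage occurring throughout. Template-switching reverse transcription and Illumina sequencing were used to read the RNAs. A 5-read minimum applied, and results are the mean of three batches.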
With A35G A64G A65G U69C, the self-cleavage stood at 0.49. A35G A56U U72A U76C: the self-cleavage is 1.15. Regarding A35G U41C A47U U60A, the self-cleavage is 0.14. As for A35G G42U U80C, the figure is 0.39. For the variant A35C U41C U51A A64U, the self-cleavage was found to be 0.17. Then A35G U41A U60C U78A, with 0.12; and A35U A45G U60A U72A, with 0.14.

As to A35G C39A A45G U60G, the self-cleavage worked out at 0.28. In the case of C34U U54G C79U, the self-cleavage was 0.32. In the case of C34G U49G A64G, the self-cleavage is 0.09. Turning to C34A U43C U54C, the self-cleavage was 0.34. Then A35U A45G U51G U54C U80C, with 0.21; and A35U A45G A57G, with 0.14. Consider A35G C37A U54A A56G A77C, for which the self-cleavage stood at 0.3.

With G33C U43A U49C A57U A75G A77G, the self-cleavage came to 0.09. Take C34U U43A U66A U78C: the self-cleavage came out at 0.24. For C34A U48C U51A U69C U72A, the self-cleavage was 0.1. Then A35G U48C A56U U67C C71U, with 0.14; and G33U A35C U60A, with 0.11; and A35G U54C A77U, with 1.28. In the case of A35C A47G G53U, the self-cleavage was determined as 0.81. Then A35G C39U U66A U72C U80C, with 1.24. With C34U C50U A57U, the self-cleavage turned out to be 0.11.

As to C34U C40G U41A, the self-cleavage is 0.15. Then C34A A47G U66C, with 0.16; and A35G A47G U66C, with 1.15; and C34A C40U U78C, with 0.16.

For A35G U51A U67G, the self-cleavage amounted to 1.41.

G33C U51C U69C U76A U78C: the self-cleavage stood at 0.07. As for C34A C40A A45G A57U U67A, the figure is 0.04; as for A35G U41A A45U U72C, 0.11. Turning to A35G A64G U78C, the self-cleavage is 1.24.

In the case of A35G A47G U48A, the self-cleavage is 0.7. For A35G A65C U69C, the self-cleavage stood at 0.62. Regarding G33U U78C C79A, the self-cleavage stood at 0.09.

Consider A35G U49C A75G, for which the self-cleavage came to 1.03.

Turning to A35G U58A U72A, the self-cleavage stood at 0.48.

Turning to A35G U51A G55A U58C U72C A75U, the self-cleavage worked out at 1.16. A35G A57U U69G: the self-cleavage is 0.49. As to A35G A45U U60A U72A, the self-cleavage was determined as 1.2. Consider A35G U72A U78A, for which the self-cleavage came to 1.26.

For C34A U41A A45G, the self-cleavage was 0.14.

Consider C34U U51A A75U, for which the self-cleavage came out at 0.45. Turning to C34G A64G U67G A77U, the self-cleavage is 0.08. Then A35C U49A A56G, with 0.34; and A35G C38A U49A U51C U66A, with 0.25. On to A35G U43C U54C U60C A65G U66C, for which the self-cleavage stood at 0.24. As for C34U U60C A64G, the figure is 0.35.

A35G C39A U72C U80A: the self-cleavage worked out at 1.02.

As for A35G U54C A65G, the self-cleavage came to 1.16.

As to A35U A45G U48C U67C, the self-cleavage is 0.11. A35G U48C U78C C81U: the self-cleavage was found to be 1.3. C34A A35U U60C G61U: the self-cleavage amounted to 0.17.

Consider A35G U41C U54C U67C A75G, for which the self-cleavage was 0.29. Turning to A35C U67C A75U, the self-cleavage came to 0.13. On to A35G C38A U49C U69C C71A U72C, for which the self-cleavage was 0.1. Then A35G U58C U60C, with 0.45; and A35G C40U A45U A56G C71A, with 0.34; and A35C U49A U58A, with 0.17. As for A35G U67A U72C U80A, the figure is 1.18; as for A35G A45C U72C, 0.97; as for A35G U72C U74A, 1.28.

A35G C59A U69C: the self-cleavage is 0.62. Consider A35G G36C C62U, for which the self-cleavage was found to be 0.07. For A35G A57G C62A U72C, the self-cleavage was 0.39. As to A35C A45G U54C A75U, the self-cleavage is 0.54. For the variant A35G A56U U72C A77G, the self-cleavage is 1.28.

Regarding A35G U43A C68U, the self-cleavage stood at 1.22.

As to A35G U51C U54A G73A U74C A75G, the self-cleavage was determined as 1.24. With A35G A45G A57G, the self-cleavage was determined as 1.22.

Take A35G A47U U76C: the self-cleavage was 1.23. In the case of A35G A45G U51C U69C U74C A75U, the self-cleavage is 0.86. As for A35G A45U U51A, the figure is 1.27; as for A35G U43A U49C G55C U80C, 0.72. Then A35G U54C A64U U74C U78C, with 1.19; and A35G U41A A45U U69C, with 0.19; and C34G U43G U48C, with 0.07. Turning to A35G U48A U66C, the self-cleavage came out at 0.43. Take C34U U49A U66C: the self-cleavage was determined as 0.13.

As to A35G C40G U67A, the self-cleavage stood at 0.21. In the case of C34A U41A G63A, the self-cleavage stood at 0.63. Regarding A35U A45G A47G U48C U72A, the self-cleavage was determined as 0.12. Then A35G U51C U60C, with 0.24. C34U A47C U48C A64G U66C U72A A77U: the self-cleavage came to 0.1. As for A35G U41A U49A, the self-cleavage came out at 0.19. As for C34U C40U A47G U69C, the figure is 0.08; as for A35C A45G U72A, 0.34; as for A35G U41A U60A A65G, 0.19. In the case of A35G C37A A77G, the self-cleavage worked out at 0.55.

As to A35G A45U U66C, the self-cleavage was found to be 0.66.

For A35G U41C A56G U72C C79U, the self-cleavage stood at 1.3.

Consider A35G U78C U80A, for which the self-cleavage was found to be 1.32.

Take A35G A56U U58G: the self-cleavage was found to be 0.64. As for A35G U51C U74C A75G, the figure is 1.3. As for A35G C40A U43C U51C U66C, the figure is 0.1; as for A35C U41C U78A, 1.1. Take A35G G36A A56U U58C C62U: the self-cleavage was 0.15. For A35G U51G U54C, the self-cleavage is 1.25. With A35G A64U U67C, the self-cleavage amounted to 0.56. Then A35G A47U A56G A57U U69C, with 0.17. Consider A35C A56U U69C, for which the self-cleavage amounted to 0.48. As for C34U A45U A65G, the self-cleavage was 0.13.

With C34A U54C U72A, the self-cleavage amounted to 0.18. On to A35G A47G U60C A77G, for which the self-cleavage is 0.95. Regarding C34U G63A A77G U80C, the self-cleavage worked out at 0.14. Then A35G A65G U67A A75G, with 0.48; and G33U A35G A45G U54C, with 0.14; and A35G C38U U48C A56G U60A U78C, with 0.33. For the variant A35G A47G U67C, the self-cleavage is 0.47.

On to A35G U66A U72A, for which the self-cleavage was 1.14. G33U C39U U43A U72A: the self-cleavage amounted to 0.1. In the case of A35G U51A U66C U72G U78C, the self-cleavage is 1.15. As for A35G G63U U66A, the figure is 1.23; as for A35G G63A U66C, 1.25; as for A35G U51C A56G U69C, 1.21. On to A35G A75G U80C, for which the self-cleavage is 1.39. As to A35G U58C A65G, the self-cleavage was determined as 0.59. For G33C U49A U51A U67C, the self-cleavage worked out at 0.14. As for A35C A65G A75G U76C, the figure is 0.19. As for A35G U78C C79U, the figure is 1.29; as for A35G A64U U66A U72C U78C, 0.59; as for A35G U48C G61A U74A, 0.93. For the variant G33U U49C U54C, the self-cleavage is 0.04. Then A35G U51C U69C G70A, with 0.67; and A35G U60G U72C, with 0.78; and G33U A45G U48C A64G, with 0.05. Then A35G U43A U74C, with 1.3. On to A35C U41C U72C U80C, for which the self-cleavage amounted to 1.18. Turning to A35G A47G U51C U80C, the self-cleavage is 1.29. For A35G U54C A57G, the self-cleavage is 1.11.

As to A35G U51G A57G, the self-cleavage turned out to be 1.29. As for A35G U43C A47G U58C U69C, the self-cleavage stood at 0.89. On to A35G U41C U72C, for which the self-cleavage was determined as 1.23.

Consider A35G U51A U60A, for which the self-cleavage was determined as 1.23. Regarding G33U G55U A64G U66C, the self-cleavage stood at 0.11. Turning to A35G A75G A77G, the self-cleavage was found to be 1.41. Then A35G U41A A56G U78A, with 0.34; and C34U A45U U54C A57G C62U U69A, with 0.06. On to A35G A45G C59U U78C, for which the self-cleavage stood at 1.27. As to A35U A45G U54C, the self-cleavage turned out to be 0.21. As to A35G U51C U74G, the self-cleavage was 1.3. For C34A U58C C68U, the self-cleavage was determined as 0.12.

On to A35G U43A A77G, for which the self-cleavage worked out at 1.28. For A35G U41C A47G U54C, the self-cleavage worked out at 1.26. As to A35G U49C U60C U74C, the self-cleavage is 0.32. Then A35G A47G U51A A57G, with 1.2; and A35C U58A A64U, with 0.18; and C34A U60C U76A, with 0.16.

As for A35G U51C C62A A65U, the self-cleavage worked out at 0.39.

Regarding A35G C50A U74A, the self-cleavage was 1.28. Turning to A35G U41A G46U, the self-cleavage was 0.12. As for A35G A45G A75G, the figure is 1.25; as for A35G U51C G73A, 1.41; as for A35G U76C U80C, 1.29.

Take A35G U60A U80C: the self-cleavage came to 1.19. As for A35G U41C U80A, the figure is 1.29; as for A35C C40U G73A A75G, 1.29; as for A35G A47G U60C U67C, 0.63.

For A35G U43A U58C C62G U78A, the self-cleavage was 0.92. As for A35G A64U U80C, the self-cleavage is 1.14. As for A35G A64G U76C, the self-cleavage was 1.27. A35G U78A U80C: the self-cleavage came out at 1.22. For A35G G36A U80A, the self-cleavage turned out to be 1.01. With A35G U51G U58C U67A U69A, the self-cleavage worked out at 0.81. As for G33U A35G U54C A56C A64G, the figure is 0.1; as for A35G U41C U60C U72A, 0.53; as for C34U A35G U48C, 0.12.

The values are drawn from the RNAGym collection of RNA variant scans (doi:10.1093/nar/gkz1192).
